{
  "source": "PubChem BioAssay AID720709",
  "about": "(National Center for Advancing Translational Sciences (NCATS), 2013)",
  "note": "Hit rate of the full screen: of about 360,000 compounds, about 520 (0.14%) were called active. The shares of active, inactive and inconclusive entries below differ from those in the screen. Calls follow the shape of the dose curve; as a rule, active = well fitted inhibition curve with a large enough effect; inconclusive = small, poorly fitted or top-dose-only effect; inactive = no such curve, though single readings can be large or run the other way. No potency is given beside an inconclusive call; the fits are too rough. Potency is read from the fitted curve at half-maximal effect; tags tell the direction and shape of the fitted curve.",
  "data": [
    {"molecular_target": "Rap guanine nucleotide exchange factor 3 (Homo sapiens) (UniProt O95398)", "sequence (O95398 whole entry, looked up)": "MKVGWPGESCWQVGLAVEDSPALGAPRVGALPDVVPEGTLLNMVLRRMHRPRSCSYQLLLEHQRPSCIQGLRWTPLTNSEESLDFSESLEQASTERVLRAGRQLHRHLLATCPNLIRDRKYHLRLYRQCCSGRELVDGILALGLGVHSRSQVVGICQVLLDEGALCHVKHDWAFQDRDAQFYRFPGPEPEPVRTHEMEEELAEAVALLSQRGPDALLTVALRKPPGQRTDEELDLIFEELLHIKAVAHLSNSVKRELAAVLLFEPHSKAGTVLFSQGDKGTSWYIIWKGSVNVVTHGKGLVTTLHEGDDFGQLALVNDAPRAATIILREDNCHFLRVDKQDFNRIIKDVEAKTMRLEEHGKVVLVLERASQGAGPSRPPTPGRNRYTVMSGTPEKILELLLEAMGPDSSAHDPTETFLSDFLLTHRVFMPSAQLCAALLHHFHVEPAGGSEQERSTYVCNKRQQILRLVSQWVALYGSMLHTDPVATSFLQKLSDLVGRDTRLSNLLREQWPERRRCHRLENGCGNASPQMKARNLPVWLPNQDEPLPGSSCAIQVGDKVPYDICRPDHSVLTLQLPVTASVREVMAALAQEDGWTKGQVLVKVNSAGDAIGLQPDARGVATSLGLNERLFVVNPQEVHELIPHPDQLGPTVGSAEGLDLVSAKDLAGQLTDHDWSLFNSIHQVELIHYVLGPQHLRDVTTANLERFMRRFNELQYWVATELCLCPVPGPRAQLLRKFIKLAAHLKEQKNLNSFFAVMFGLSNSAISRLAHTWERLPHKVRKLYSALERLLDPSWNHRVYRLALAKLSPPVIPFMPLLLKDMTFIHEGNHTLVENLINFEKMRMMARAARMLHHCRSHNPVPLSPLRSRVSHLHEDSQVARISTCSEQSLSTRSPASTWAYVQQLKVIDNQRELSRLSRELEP", "experiment": "qHTS for Antagonist of cAMP-regulated guanine nucleotide exchange factor 3 (EPAC1): primary screen; also: nearly all actives have a fitted effect of over 50% in size;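 as to activity change, negative = inhibition: plate controls were vehicle for no effect and positive control for full effect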", "details": "EPAC1 GEF assay, Rap1b-BODIPY-GDP exchange fluorescence; activity change, negative = inhibition: at 115 µM (top of the series)", "values": [
      {"smiles": "CCOC(=O)c1nncc(-c2ccccc2)n1", "activity change, negative = inhibition": "inactive: -3.36%"},
      {"smiles": "COCCCNC(=S)NNC(=O)C(O)(c1ccccc1)c1ccccc1", "Potency": "inconclusive [inhibitor, partial curve]"},
      {"smiles": "C/C(N)=C(/C#N)C(=O)COC(=O)c1cc(C)n(-c2ccc(F)cc2)c1C", "Potency": "inactive"},
      {"smiles": "O=C(O)C(c1ccccc1)N1C(=O)/C(=C\\c2ccc(-c3ccc(Br)cc3)o2)SC1=S", "note": "(centres undefined)", "activity change, negative = inhibition": "inactive: -6.07%"},
      {"smiles": "O=C(O)C1=CC[C@@H](c2ccc(Cl)cc2)N(S(=O)(=O)c2ccc(Cl)cc2)[C@H]1c1ccc(Br)cc1", "Potency": "inconclusive [inhibitor, partial curve]"},
      {"smiles": "Cc1ccnc2nc(C(=O)NC3CCCc4ccccc43)nn12", "note": "(centres undefined)", "activity change, negative = inhibition": "inactive: -5.45%"},
      {"smiles": "C#CCOCCOCCOCCNc1nc(N2CCN(C(=O)CCCCCCCCCCNC(=O)[C@H](CO)n3cc(CCCSC)nn3)CC2)nc(N2CCN(C(=O)CCCCCCCCCCNC(=O)[C@H](CCCN=C(N)N)n3cc(C[C@@H](C)CC)nn3)CC2)n1", "Potency": "active: 56.2 µM"},
      {"smiles": "COc1ccc(OCC(=O)N/N=C2\\CCCCc3ccccc32)cc1", "Potency": "inconclusive [inhibitor, partial curve]"},
      {"smiles": "C=CCN1C(=O)[C@@H]2Cc3c([nH]c4ccccc34)C(c3cc(OC)c(OC)c(OC)c3)N2C1=S", "note": "(some centres undefined)", "Potency": "inconclusive [inhibitor, single point]"},
      {"smiles": "CCc1ccccc1NC(=O)C1CCN(C(=O)c2ccc([N+](=O)[O-])cc2)CC1", "Potency": "inconclusive [inhibitor, single point]"},
      {"smiles": "O=C(O)COc1ccccc1C=NNc1ccc([N+](=O)[O-])cc1S(=O)(=O)Nc1ccc(Cl)cc1", "Potency": "inconclusive [inhibitor, single point]"},
      {"smiles": "O=c1[nH]c(Nc2ccc(F)cc2)cc2ccccc12", "Potency": "inconclusive [inhibitor, partial curve]"},
      {"smiles": "N#CCSc1nc2[nH]ncc2c(=O)n1-c1ccccc1Br", "activity change, negative = inhibition": "inactive: 23.8%"},
      {"smiles": "O=C(N/N=C/c1ccc([N+](=O)[O-])o1)c1ccc(NS(=O)(=O)c2cccs2)cc1", "Potency": "inconclusive [inhibitor, partial curve]"},
      {"smiles": "CCN(CCCNC(=O)CN1C(=O)COc2ccc(S(=O)(=O)N3CCC(C)CC3)cc21)Cc1ccccc1", "Potency": "inconclusive [inhibitor, full curve, poor fit]"},
      {"smiles": "COc1ccc(NC(=O)Nc2cccc3c2O[C@H](CN(C)Cc2ccc(-c4ccccc4)cc2)[C@@H](C)CN([C@H](C)CO)C3=O)cc1", "Potency": "inconclusive [inhibitor, single point]"},
      {"smiles": "Cc1cccc(C)c1NC(=O)C1(C)CSCC(=O)N1CCc1c[nH]c2ccccc12", "note": "(centres undefined)", "activity change, negative = inhibition": "inactive: 14.2%"},
      {"smiles": "COc1ccc(OC)c(C2=NO[C@@](CC(=O)O)(C(=O)Nc3ccc4c(c3)OCCO4)C2)c1", "Potency": "inconclusive [inhibitor, full curve]"},
      {"smiles": "CCCc1nn(C)c(C(=O)Nc2cccc(CC)c2)c1Cl", "Potency": "inconclusive [inhibitor, partial curve]"},
      {"smiles": "O=C(C1=C(O)C(=O)N(CC2CCCO2)C1c1ccccc1)c1ccco1", "note": "(centres undefined)", "activity change, negative = inhibition": "inactive: -4.73%"},
      {"smiles": "COc1ccc(N2CCN(S(=O)(=O)c3cc4c(cc3C)NC(=O)CO4)CC2)cc1", "Potency": "inconclusive [inhibitor, single point]"},
      {"smiles": "O=C(NCCc1ccccn1)C(F)(F)C(F)(F)C(F)(F)C(F)(F)C(F)(F)C(F)F", "Potency": "inconclusive [inhibitor, partial curve]"},
      {"smiles": "CCNC(=O)C1CCCN(C(=O)c2ccc(OC)c(OC)c2)CC1", "note": "(centres undefined)", "Potency": "inconclusive [inhibitor, single point]"},
      {"smiles": "O=C(CN1C(=O)NC(Cc2c[nH]c3ccccc23)C1=O)Nc1cccc(S(=O)(=O)N2CCCCCC2)c1", "note": "(centres undefined)", "Potency": "inconclusive [inhibitor, partial curve, poor fit]"},
      {"smiles": "Cc1ccc(S(=O)(=O)N2[C@@H](c3ccc(Br)cc3)C(C(=O)O)=C[C@H]2CC2CCCC2)cc1", "Potency": "inconclusive [inhibitor, partial curve, poor fit]"},
      {"smiles": "CC(=O)NCCNc1nc2cc(-c3ccsc3)sc2c(=O)n1C", "Potency": "inconclusive [inhibitor, full curve, poor fit]"},
      {"smiles": "O=S(=O)(Nc1nc2ccccc2nc1Nc1cccc(S(=O)(=O)N2CCCCC2)c1)c1ccccc1", "Potency": "inconclusive [inhibitor, single point]"},
      {"smiles": "Cc1csc(/N=C/c2ccc([N+](=O)[O-])cc2)n1", "Potency": "inconclusive [inhibitor, partial curve]"},
      {"smiles": "O=C1SC(SCc2ccccc2)=N/C1=C\\c1ccco1", "Potency": "inconclusive [inhibitor, partial curve]"},
      {"smiles": "C#CCSc1nsc(SCC#C)c1C#N", "Potency": "inconclusive [inhibitor, partial curve, poor fit]"},
      {"smiles": "Fc1cccc(Cl)c1COc1ccc(-c2nnco2)cc1", "Potency": "inconclusive [inhibitor, single point]"},
      {"smiles": "O=C(NC1CCCCC1)c1ccc(CNc2c(N3CCOCC3)c(=O)c2=O)cc1", "Potency": "inconclusive [inhibitor, partial curve]"},
      {"smiles": "COC(=O)c1ccc(CC2(C)C(=O)Nc3ccc(-c4cccc(C(F)(F)F)c4)cc32)o1", "note": "(centres undefined)", "Potency": "inconclusive [inhibitor, partial curve]"},
      {"smiles": "O=C(Nc1nnc(SCc2ccc(F)cc2)s1)C1Cc2ccccc2CN1C(=O)c1ccco1", "note": "(centres undefined)", "Potency": "inconclusive [inhibitor, partial curve]"},
      {"smiles": "Cc1cc(O)c(NC(=S)NC(=O)c2ccc(-c3ccc(Cl)cc3)o2)cc1C", "Potency": "inconclusive [inhibitor, partial curve]"},
      {"smiles": "CCOC(=S)SCC(=O)N1CCc2ccccc2C1C1C(=O)CCCC1=O", "note": "(centres undefined)", "Potency": "inconclusive [inhibitor, partial curve]"},
      {"smiles": "O=C(CCN1C(=O)/C(=C/c2ccccc2Cl)SC1=S)Nc1ccccc1C(=O)O", "activity change, negative = inhibition": "inactive: -18%"},
      {"smiles": "NC(=O)c1nn(Cc2ccccc2)c(=O)c2ccccc12", "Potency": "inconclusive [inhibitor, partial curve]"},
      {"smiles": "CCOC(=O)NC(=O)CSc1cc(C)c2cc(C)cc(C)c2n1", "activity change, negative = inhibition": "inconclusive: -18.7% [inhibitor]"}
    ]}
  ]
}
